Experiments:
[1] = target: T1, recombinant E. coli-expressed human IL-13 (human, UniProt P35225 partial chain); assay: SPR
T1 construct: made and purified at GSK; also called Interleukin-13; rhIL-13

[2] = target: T2, recombinant Sf21-expressed human IL-5 (human, UniProt P05113 20-134); assay: SPR
[3] = target: T3, recombinant E. coli-expressed human IL-4 (human, UniProt P05112 25-153); assay: SPR
T3 construct: made and purified at GSK; also called Interleukin-4; rhIL-4
T3 sequence: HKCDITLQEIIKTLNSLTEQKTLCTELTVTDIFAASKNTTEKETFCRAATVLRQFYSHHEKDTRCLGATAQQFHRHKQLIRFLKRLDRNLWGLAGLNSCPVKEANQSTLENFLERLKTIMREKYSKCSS

recombinant human IL-12 = target: T4, recombinant human IL-12 (human, UniProt P29459 23-219; P29460 23-328); assay: ELISA, supernatant
T4 sequence (looked up) 1: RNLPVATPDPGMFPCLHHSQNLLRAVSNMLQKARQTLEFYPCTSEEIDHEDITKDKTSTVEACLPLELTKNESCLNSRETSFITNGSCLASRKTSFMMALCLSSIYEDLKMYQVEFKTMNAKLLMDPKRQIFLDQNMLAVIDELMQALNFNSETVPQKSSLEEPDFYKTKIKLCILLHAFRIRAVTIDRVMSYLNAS
T4 sequence (looked up) 2: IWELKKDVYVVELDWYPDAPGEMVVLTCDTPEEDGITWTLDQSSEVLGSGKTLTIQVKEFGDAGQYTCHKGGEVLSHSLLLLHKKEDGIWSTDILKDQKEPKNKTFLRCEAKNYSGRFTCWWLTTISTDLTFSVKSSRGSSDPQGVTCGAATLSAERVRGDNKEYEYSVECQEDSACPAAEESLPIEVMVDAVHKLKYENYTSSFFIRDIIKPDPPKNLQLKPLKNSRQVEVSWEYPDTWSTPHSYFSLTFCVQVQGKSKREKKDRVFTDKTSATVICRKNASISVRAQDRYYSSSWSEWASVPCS

[4] = target: recombinant E. coli-expressed human IL-18 (human, UniProt Q14116 37-193); assay: ELISA, supernatant
[5] = target: T3, recombinant E. coli-expressed human IL-4; assay: ELISA, supernatant
[6] = target: T1, recombinant E. coli-expressed human …; assay: ELISA, supernatant
[7] = target: T2, recombinant Sf21-expressed human IL-5; assay: ELISA, supernatant

B1: Mepo-210-474 (other)
heavy: QVTLRESGPALVKPTQTLTLTCTVSGFSLTSYSVHWVRQPPGKGLEWLGVIWASGGTDYNSALMSRLSISKDTSRNQVVLTMTNMDPVDTATYYCARDPPSSLLRLDYWGRGTLVTVSS[human IgG1 constant region omitted]GGGGSEVQLLESGGGLVQPGGSLRLSCAASGFTFRNFGMGWVRQAPGKGLEWVSWIISSGTETYYADSVKGRFTISRDNSKNTLYLQMNSLRAEDTAVYYCAKSLGRFDYWGQGTLVTVSS
light: DIVMTQSPDSLAVSLGERATINCKSSQSLLNSGNQKNYLAWYQQKPGQPPKLLIYGASTRESGVPDRFSGSGSGTDFTLTISSLQAEDVAVYYCQNVHSFPFTFGGGTKLEIKRTVAAPSVFIFPPSDEQLKSGTASVVCLLNNFYPREAKVQWKVDNALQSGNSQESVTEQDSKDSTYSLSSTLTLSKADYEKHKVYACEVTHQGLSSPVTKSFNRGECGGGGSGVQLLESGGGLVQPGGSLRLSCAASGFTFAWYDMGWVRQAPGKGLEWVSSIDWHGEVTYYADSVKGRFTISRDNSKNTLYLQMNSLRAEDTAVYYCATAEDEPGYDYWGQGTLVTVSS
notes: trispecific mAbdAb; also called trispecific anti-IL5 mAb-anti-IL4dAb-anti-IL13dAb
Kd [1]: 1.62 nM | Kd [2]: 0.45 nM | binding result [3]: binds

B2: BPC1616 (other)
heavy: EVTLRESGPALVKPTQTLTLTCTFSGFSLSKSVMGVSWIRQPPGKALEWLAHIYWDDDKYYNPSLKSRLTISKDTSKNQVVLTMTNMDPVDTATYYCARRGIRSAMDYWGQGTTVTVSSASTKGPEVQLVQSGTEVKKPGESLKISCKGSGYTVTSYWIGWVRQMPGKGLEWMGFIYPGDSETRYSPTFQGQVTISADKSFNTAFLQWSSLKASDTAMYYCARVGSGWYPYTFDIWGQGTLVTVSS[human IgG1 constant region omitted]TVAAPSEVQLLESGGGLVQPGGSLRLSCAASGFTFRNFGMGWVRQAPGKGLEWVSWIISSGTETYYADSVKGRFTISRDNSKNTLYLQMNSLRAEDTAVYYCAKSLGRFDYWGQGTLVTVSS
light: DIVMTQSPDSLAVSLGERATINCKASQSVSNDVAWYQQKPGQPPKLLIYYASNRYTGVPDRFSGSGSGTDFTLTISSLQAEDVAVYYCQQDYNSPWTFGGGTKVEIKRTVAAPEIVMTQSPATLSVSPGERATLSCRASESASSNLAWYQQKPGQAPRLFIYTASTRATDIPARFSGSGSGTEFTLTISSLQSEDFAVYYCQQYNNWPSITFGQGTRLEIKRTVAAPSVFIFPPSDEQLKSGTASVVCLLNNFYPREAKVQWKVDNALQSGNSQESVTEQDSKDSTYSLSSTLTLSKADYEKHKVYACEVTHQGLSSPVTKSFNRGEC
notes: trispecific; also called IL-12/18 DVDH TVAAPS-210
binding result (recombinant human IL-12): binds | binding result [4]: binds | binding result [5]: binds

B3: MepolizumabL-G4S-474 (bispecific antibody, human IgG1, kappa)
heavy: QVTLRESGPALVKPTQTLTLTCTVSGFSLTSYSVHWVRQPPGKGLEWLGVIWASGGTDYNSALMSRLSISKDTSRNQVVLTMTNMDPVDTATYYCARDPPSSLLRLDYWGRGTLVTVSS[human IgG1 constant region omitted]
light: DIVMTQSPDSLAVSLGERATINCKSSQSLLNSGNQKNYLAWYQQKPGQPPKLLIYGASTRESGVPDRFSGSGSGTDFTLTISSLQAEDVAVYYCQNVHSFPFTFGGGTKLEIKRTVAAPSVFIFPPSDEQLKSGTASVVCLLNNFYPREAKVQWKVDNALQSGNSQESVTEQDSKDSTYSLSSTLTLSKADYEKHKVYACEVTHQGLSSPVTKSFNRGECGGGGSGVQLLESGGGLVQPGGSLRLSCAASGFTFAWYDMGWVRQAPGKGLEWVSSIDWHGEVTYYADSVKGRFTISRDNSKNTLYLQMNSLRAEDTAVYYCATAEDEPGYDYWGQGTLVTVSS
notes: also called BPC1021; anti-IL5 mAb-anti-IL13dAb
binding result [6]: binds | binding result [7]: binds
